Laboratory results published in a protein production outcome set (Wang et al. 2014).

Test: label from the status in PepcDB records

Q: With “MANLDKYTETFKMGSNSTSTAEIYCNVTNVKFQYSLYATTYILIFIPGLLANSAALWVLCRFISKKNKAIIFMINLSVADLAHVLSLPLRIYYYISHHWPFQRALCLLCFYLKYLNMYASICFLTCISLQRCFFLLKPFRARDWKRRYDVGISAAIWIVVGTACLPFPILRSTDLNNNKSCFADLGYKQMNAVALVGMITVAELAGFVIPVIIIAWCTWKTTISLRQPPMAFQGISERQKALRMVFMCAAVFFICFTPYHINFIFYTMVKETIISSCPVVRIALYFHPFCLCLASLCCLLDPILYYFMASEFRDQLSRHGSSVTRSRLMSKESGSSMIG” as the sequence, how does the protein production read?
A: failed

Q: For “MAPTEPWSPSPGSAPWDYSGLDGLEELELCPAGDLPYGYVYIPALYLAAFAVGLLGNAFVVWLLAGRRGPRRLVDTFVLHLAAADLGFVLTLPLWAAAAALGGRWPFGDGLCKLSSFALAGTRCAGALLLAGMSVDRYLAVVKLLEARPLRTPRCALASCCGVWAVALLAGLPSLVYRGLQPLPGGQDSQCGEEPSHAFQGLSLLLLLLTFVLPLVVTLFCYCRISRRLRRPPHVGRARRNSLRIIFAIESTFVGSWLPFSALRAVFHLARLGALPLPCPLLLALRWGLTIATCLAFVNSCANPLIYLLLDRSFRARALDGACGRTGRLARRISSASSLSRDDSSVFRCRAQAANTASASW”, which protein production is on record?
A: failed

Q: Which protein production does the source give for “MIVGLGTDIAEIERVEKALARSGENFARRILTDSELEQFHASKQQGRFLAKRFAAKEAASKALGTGIAQGVTFHDFTISHDKLGKPLLILSGQAAELASQLQVENIHLSISDERHYAMATVILERR” here?
A: not failed

Q: Which protein production does the source give for “MNTTSSAAPPSLGVEFISLLAIILLSVALAVGLPGNSFVVWSILKRMQKRSVTALMVLNLALADLAVLLTAPFFLHFLAQGTWSFGLAGCRLCHYVCGVSMYASVLLITAMSLDRSLAVARPFVSQKLRTKAMARRVLAGIWVLSFLLATPVLAYRTVVPWKTNMSLCFPRYPSEGHRAFHLIFEAVTGFLLPFLAVVASYSDIGRRLQARRFRRSRRTGRLVVLIILTFAAFWLPYHVVNLAEAGRALAGQAAGLGLVGKRLSLARNVLIALAFLSSSVNPVLYACAGGGLLRSAGVGFVAKLLEGTGSEASSTRRGGSLGQTARSGPAALEPGPSESLTASSPLKLNELN” here?
A: failed

Q: Which protein production does the source give for “MPDTNSTINLSLSTRVTLAFFMSLVAFAIMLGNALVILAFVVDKNLRHRSSYFFLNLAISDFFVGVISIPLYIPHTLFEWDFGKEICVFWLTTDYLLCTASVYNIVLISYDRYLSVSNAVSYRTQHTGVLKIVTLMVAVWVLAFLVNGPMILVSESWKDEGSECEPGFFSEWYILAITSFLEFVIPVILVAYFNMNIYWSLWKRDHLSRCQSHPGLTAVSSNICGHSFRGRLSSRRSLSASTEVPASFHSERQRRKSSLMFSSRTKMNSNTIASKMGSFSQSDSVALHQREHVELLRARRLAKSLAILLGVFAVCWAPYSLFTIVLSFYSSATGPKSVWYRIAFWLQWFNSFVNPLLYPLCHKRFQKAFLKIFCIKKQPLPSQHSRSVSS” here?
A: failed

Q: Which protein production does the source give for “MSLPNSSCLLEDKMCEGNKTTMASPQLMPLVVVLSTICLVTVGLNLLVLYAVRSERKLHTVGNLYIVSLSVADLIVGAVVMPMNILYLLMSKWSLGRPLCLFWLSMDYVASTASIFSVFILCIDRYRSVQQPLRYLKYRTKTRASATILGAWFLSFLWVIPILGWNHFMQQTSVRREDKCETDFYDVTWFKVMTAIINFYLPTLLMLWFYAKIYKAVRQHCQHRELINRSLPSFSEIKLRPENPKGDAKKPGKESPWEVLKRKPKDAGGGSVLKSPSQTPKEMKSPVVFSQEDDREVDKLYCFPLDIVHMQAAAEGSSRDYVAVNRSHGQLKTDEQGLNTHGASEISEDQMLGDSQSFSRTDSDTTTETAPGKGKLRSGSNTGLDYIKFTWKRLRSHSRQYVSGLHMNRERKAAKQLGFIMAAFILCWIPYFIFFMVIAFCKNCCNEHLHMFTIWLGYINSTLNPLIYPLCNENFKKTFKRILHIRS” here?
A: not failed

Q: For “MVPEPGPTANSTPAWGAGPPSAPGGSGWVAAALCVVIALTAAANSLLIALICTQPALRNTSNFFLVSLFTSDLMVGLVVMPPAMLNALYGRWVLARGLCLLWTAFDVMCCSASILNLCLISLDRYLLILSPLRYKLRMTPLRALALVLGAWSLAALASFLPLLLGWHELGHARPPVPGQCRLLASLPFVLVASGLTFFLPSGAICFTYCRILLAARKQAVQVASLTTGMASQASETLQVPRTPRPGVESADSRRLATKHSRKALKASLTLGILLGMFFVTWLPFFVANIVQAVCDCISPGLFDVLTWLGYCNSTMNPIIYPLFMRDFKRALGRFLPCPRCPRERQASLASPSLRTSHSGPRPGLSLQQVLPLPLPPDSDSDSDAGSGGSSGLRLTAQLLLPGEATQDPPLPTRAAAAVNFFNIDPAEPELRPHPLGIPTN”, which protein production is on record?
A: failed
